Assay results taken from publication PMC4336329 (PLoS ONE, 2015).
Hit rate of the full screen: of about 310,000 compounds, about 14,000 (4.5%) showed an effect of 50% or more. Effects have a minus sign here. Some of the results follow.

The compounds below were run against human ether-à-go-go-related gene (hERG) potassium channel (human, UniProt Q12809) (assay: primary screen, population patch clamp on CHO cells stably expressing hERG).
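Also: peak tail current of the secondary pulse compared with the same well before compound.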

Chain of human ether-à-go-go-related gene (hERG) potassium channel (Q12809 whole entry, looked up): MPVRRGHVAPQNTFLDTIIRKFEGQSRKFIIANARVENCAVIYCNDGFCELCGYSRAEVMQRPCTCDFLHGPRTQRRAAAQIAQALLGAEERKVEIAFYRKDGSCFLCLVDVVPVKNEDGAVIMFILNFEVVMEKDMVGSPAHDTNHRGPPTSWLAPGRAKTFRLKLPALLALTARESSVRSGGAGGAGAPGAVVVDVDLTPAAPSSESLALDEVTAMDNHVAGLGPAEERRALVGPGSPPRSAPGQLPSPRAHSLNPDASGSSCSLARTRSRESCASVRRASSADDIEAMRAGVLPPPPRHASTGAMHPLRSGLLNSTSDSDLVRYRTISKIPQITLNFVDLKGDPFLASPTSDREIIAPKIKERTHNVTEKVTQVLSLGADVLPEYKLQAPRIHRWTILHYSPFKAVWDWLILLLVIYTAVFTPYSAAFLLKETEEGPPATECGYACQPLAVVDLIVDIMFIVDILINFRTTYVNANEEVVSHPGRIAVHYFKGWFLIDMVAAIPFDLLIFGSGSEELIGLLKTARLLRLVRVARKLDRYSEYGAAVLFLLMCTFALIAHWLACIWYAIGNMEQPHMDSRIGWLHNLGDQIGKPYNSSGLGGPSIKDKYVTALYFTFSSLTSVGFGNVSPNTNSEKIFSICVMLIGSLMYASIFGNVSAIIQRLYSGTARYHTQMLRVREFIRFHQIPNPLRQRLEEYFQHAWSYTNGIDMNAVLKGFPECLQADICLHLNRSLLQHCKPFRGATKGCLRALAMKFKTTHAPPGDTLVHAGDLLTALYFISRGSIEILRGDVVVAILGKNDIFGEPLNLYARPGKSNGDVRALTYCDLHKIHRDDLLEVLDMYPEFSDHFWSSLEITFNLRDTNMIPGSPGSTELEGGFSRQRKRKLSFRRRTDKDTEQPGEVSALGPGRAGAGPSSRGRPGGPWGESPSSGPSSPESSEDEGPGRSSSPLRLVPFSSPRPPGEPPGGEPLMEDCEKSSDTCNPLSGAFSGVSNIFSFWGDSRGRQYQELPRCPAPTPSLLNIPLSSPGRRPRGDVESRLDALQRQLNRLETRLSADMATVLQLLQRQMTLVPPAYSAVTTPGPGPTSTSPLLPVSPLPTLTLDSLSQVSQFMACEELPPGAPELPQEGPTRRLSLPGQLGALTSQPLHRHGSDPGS

Row | Compound | hERG current change (%, negative = inhibition) at 10uM [%]
1 | CCCn1ncc(/C=N/O)c1C | 17
2 | CC(=Nc1cccc(O)c1)c1sc2ccccc2c1O | 1.38
3 | CCS(=O)(=O)Nc1cccc(C2=NN(C(C)=O)C(c3cccs3)C2)c1 (stereo not drawn) | 13.4
4 | C[C@H](CCC(=O)O)[C@H]1CC[C@H]2[C@@H]3[C@@H](O)C[C@@H]4C[C@H](O)CC[C@]4(C)[C@H]3CC[C@]12C | -9.79
5 | O=C(CN1C(=O)c2ccccc2C1=O)NCc1ccc(C(=O)O)cc1 | 6.49
6 | Cc1c(C(=O)C(=O)NCCC2=CCCCC2)c2ccccc2n1C | 1.92
7 | Cc1ccc(NC(=O)Cn2c(O)c(N=NC(N)=O)c3ccccc32)cc1 | -1.48
8 | CCCNS(=O)(=O)c1cccc(C(=O)NNC(=O)c2cc(C)oc2C)c1 | 10.7
9 | COc1ccc(S(=O)(=O)N2CCC(Cc3ccccc3)CC2)cc1C(N)=O | 16.1
10 | Cn1c(=O)c(C(=O)NCCc2ccc(Cl)cc2)c(O)c2ccccc21 | 18.3
11 | Cn1cc(C(=O)NC2CCCCC2)c(=O)c2cc(S(=O)(=O)N3CCOCC3)ccc21 | 11.8
12 | COCCCNC(=O)CN(c1ccc(Cl)c(Cl)c1)S(C)(=O)=O | -10.9
13 | Cc1cc(-c2csc(NC(=O)c3ccc(=O)[nH]c3)n2)c(C)n1Cc1ccco1 | 13.1
14 | O=[N+]([O-])c1ccccc1S(=O)(=O)Nc1ncccn1 | 11.5
15 | CCOC(=O)C1C(c2cccc(F)c2)NC(=S)NC1(O)C(F)(F)F (stereo not drawn) | -14.4
16 | CCOc1ccc(C(C)NC(=O)c2cccc(F)c2)cc1 (stereo not drawn) | 31.5
17 | COc1ccc(S(=O)(=O)Nc2ccccc2C(=O)Nc2nc(-c3ccc(F)cc3)cs2)cc1OC | -51.7
18 | Cc1ccc2cc(NC(=O)c3cccc(F)c3)ccc2n1 | 0.701
19 | COc1ccc(CCNC(=O)CN2C(=O)c3ccccc3C2=O)cc1 | 16.1
20 | COc1cccc(/C=N/N2CCN(C)CC2)c1.O=P(O)(O)O | 3.1
21 | Cc1ccc(F)cc1NC(=O)N1CCNC(=O)C1CC(=O)Nc1cc(Cl)ccc1Cl (stereo not drawn) | 11
22 | Cc1cc(C(=O)Nc2ccc(F)cc2C)n(-c2ccccc2)n1 | 12.6
23 | CCOc1ccccc1C(=O)NCC(=O)NNC(=O)c1cccc(S(=O)(=O)Nc2ccc(OC)cc2)c1 | 5.97

Row | Compound | hERG current change (%, negative = inhibition) at 10uM [%]
24 | Cc1ccc(CC(=O)O/N=C(\N)c2ccncc2)cc1 | 7.28
25 | Cc1ccc(NC(=O)Cn2c(O)c(N=NC(N)=S)c3ccccc32)cc1 | 20.7
26 | CC1CN=C(NCc2ccncc2)S1 (stereo not drawn) | 10.3
27 | CCOC(=O)c1c(NC(=O)COc2ncnc3sccc23)sc2c1CCC2 | 19.2
28 | COC(=O)c1ccc(N2CCOCC2)c(NC(=O)c2ccc(Br)o2)c1 | 7.34
29 | Cc1ccccc1OCC(=O)Nc1nnc(-c2ccncc2)s1 | 12.9
30 | Cc1cc(C(F)F)n2ncc(C(=O)NC3CCCCCC3)c2n1 | -11.5
31 | C/C=C(\C)CN1CCN(c2ccccc2)CC1 | -1.68
32 | CC12CCC(=O)N1C(C(=O)Nc1ccc(Cl)c(Cl)c1)CS2 (stereo not drawn) | -10.2
33 | CCC(=O)N1c2ccccc2NC2=C(C(=O)CCC2)C1c1ccccc1 (stereo not drawn) | 12.6
34 | COc1ccnc2c1c(=O)n(Cc1cccc(F)c1)c(=O)n2C | 4.41
35 | O=C(Nc1nn[nH]n1)c1cc(-c2ccc(Cl)c(Cl)c2Cl)nc2ccccc12 | 33.7
36 | N#Cc1ccccc1Cn1c(-c2cscn2)nc2ccccc21 | -7.78
37 | COCCN1CCN(C(=O)C2CCC(=O)N(CCc3ccc(Cl)cc3)C2)CC1 (stereo not drawn) | -17.6
38 | CC(CCN1CCN(c2ccccc2)CC1)c1ccccc1.Cl (stereo not drawn) | -54.6
39 | CC(=O)NC(CCS(C)(=O)=O)C(=O)Nc1c(C)cccc1C (stereo not drawn) | 8.22
40 | O=C1c2ccccc2C(=O)N1CCc1nc(-c2cccnc2)no1 | -12.2
41 | Nc1ncc(Br)cc1S(=O)(=O)Nc1ccccc1F | 3.85
42 | Cc1cc2c(Nc3ccc(O)cc3)ncnc2s1.Cl | 6.2
43 | Cc1[nH]n(-c2nc(-c3ccccc3)cc(=O)[nH]2)c(=O)c1CCO | 11.7
44 | CCOC(=O)C(=CNc1cscc1S(=O)(=O)C(C)C)C(=O)OCC | -5.63
45 | CCN(CC)C(=O)C1CCC(CNS(=O)(=O)c2cccc3cccnc23)CC1 (stereo not drawn) | 4.52
